The list shows a part of the results. Most values come without repeats; read them as rough.
How the values were obtained:
Experiment in all cases: cell count relative to DMSO control; melanoma cells; higher = more viable cells
Conditions in all cases: library dose: low library concentration; 72 h
[1] = test system: MZ2-MEL
[2] = test system: MeWo
[3] = test system: RPMI7951
[4] = test system: RVH-421
[5] = test system: SkMel28
[6] = test system: SkMel2
[7] = test system: SkMel30
[8] = test system: UACC62
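Also: cell number obtained by counting DAPI-stained nuclei in high-throughput microscope images with image analysis software, screen run in 1,536-well plates.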

| Structure (SMILES) | cell count [1] | cell count [2] | cell count [3] | cell count [4] | cell count [5] | cell count [6] | cell count [7] | cell count [8] |
| --- | --- | --- | --- | --- | --- | --- | --- | --- |
| Cc1cn(-c2cc(NC(=O)c3ccc(C)c(Nc4nccc(-c5cccnc5)n4)c3)cc(C(F)(F)F)c2)cn1 [nilotinib] + CN(c1ncccc1CNc1nc(Nc2ccc3c(c2)CC(=O)N3)ncc1C(F)(F)F)S(C)(=O)=O [PF562271] (first compound 0.2 µM, partner dose 0.08 µM) | 82.6% | 101% | 85.1% | 96% | 94.8% | 70.7% | 92.1% | 74.1% |
| COc1ccc(C2=N[C@@H](c3ccc(Cl)cc3)[C@@H](c3ccc(Cl)cc3)N2C(=O)N2CCNC(=O)C2)c(OC(C)C)c1 [Nutlin-3] + C[C@]1(c2nc3c(C(N)=O)cccc3[nH]2)CCCN1 [Veliparib] (first compound 0.1 µM, partner dose 1.4 µM) | 93.1% | 106% | 99.7% | 107% | 82.5% | 89.6% | 91.7% | 74.8% |
| COc1ccc(C2=N[C@@H](c3ccc(Cl)cc3)[C@@H](c3ccc(Cl)cc3)N2C(=O)N2CCNC(=O)C2)c(OC(C)C)c1 [Nutlin-3] + C=CCNC1=C2C[C@@H](C)C[C@H](OC)[C@H](O)[C@@H](C)/C=C(\C)[C@H](OC(N)=O)[C@@H](OC)/C=C\C=C(/C)C(=O)NC(=CC1=O)C2=O [Tanespimycin] (first compound 0.1 µM, partner dose 0.002 µM) | 104% | 102% | 100% | 86.6% | 96.5% | 106% | 84.8% | 88.8% |
| Cc1cc(Nc2cc(N3CCN(C)CC3)nc(/C=C/c3ccccc3)n2)n[nH]1 + Cc1nc(Nc2ncc(C(=O)Nc3c(C)cccc3Cl)s2)cc(N2CCN(CCO)CC2)n1 [dasatanib] (first compound 0.04 µM, partner dose 0.004 µM) | 84.5% | 89.6% | 79.5% | 88.9% | 77.6% | 97.9% | 89.7% | 79.9% |
| Cc1cn(-c2cc(NC(=O)c3ccc(C)c(Nc4nccc(-c5cccnc5)n4)c3)cc(C(F)(F)F)c2)cn1 [nilotinib] + CC(=O)c1c(C)c2cnc(Nc3ccc(N4CCNCC4)cn3)nc2n(C2CCCC2)c1=O [palbociclib] (first compound 0.2 µM, partner dose 0.04 µM) | 78.1% | 83.2% | 71.1% | 90.5% | 100% | 82.2% | 71.7% | 79.9% |
| Cc1cc(Nc2cc(N3CCN(C)CC3)nc(/C=C/c3ccccc3)n2)n[nH]1 + Cn1c(=O)n(-c2ccc(C(C)(C)C#N)cc2)c2c3cc(-c4cnc5ccccc5c4)ccc3ncc21 [NVP-BEZ235] (first compound 0.04 µM, partner dose 0.004 µM) | 102% | 81.2% | 88.5% | 78.8% | 75.6% | 89.2% | 121% | 92.4% |
| Cn1c(=O)n(-c2ccc(C(C)(C)C#N)cc2)c2c3cc(-c4cnc5ccccc5c4)ccc3ncc21 + Nc1cccc2c1CN(C1CCC(=O)NC1=O)C2=O [lenalidomide] (first compound 0.004 µM, partner dose 1 µM) | 96.7% | 83.6% | 80.9% | 75% | 91.8% | 83.7% | 87.4% | 84.3% |
| CC(C)C[C@H](NC(=O)[C@H](Cc1ccccc1)NC(=O)c1cnccn1)B(O)O [Bortezomib] + COc1ccc(Cl)c(Nc2nc3ccccc3nc2NS(=O)(=O)c2cccc(NC(=O)C(C)(C)N)c2)c1 [XL147] (first compound 0.001 µM, partner dose 0.8 µM) | 71.7% | 87.3% | 70.7% | 71.9% | 85.5% | 104% | 67.5% | 88.9% |
| Cc1cn(-c2cc(NC(=O)c3ccc(C)c(Nc4nccc(-c5cccnc5)n4)c3)cc(C(F)(F)F)c2)cn1 [nilotinib] + C[C@]1(c2nc3c(C(N)=O)cccc3[nH]2)CCCN1 [Veliparib] (first compound 0.2 µM, partner dose 1.4 µM) | 95.9% | 95.5% | 84% | 78.9% | 92.5% | 85.7% | 91.3% | 95.1% |
| COc1ccc(C2=N[C@@H](c3ccc(Cl)cc3)[C@@H](c3ccc(Cl)cc3)N2C(=O)N2CCNC(=O)C2)c(OC(C)C)c1 [Nutlin-3] + Clc1ccc(Nc2nnc(Cc3ccncc3)c3ccccc23)cc1 [vatalanib] (first compound 0.1 µM, partner dose 2 µM) | 91.5% | 73% | 79.3% | 75% | 75.5% | 94.5% | 89% | 79.3% |
| Cc1cn(-c2cc(NC(=O)c3ccc(C)c(Nc4nccc(-c5cccnc5)n4)c3)cc(C(F)(F)F)c2)cn1 [nilotinib] + COc1ccc(C2=N[C@@H](c3ccc(Cl)cc3)[C@@H](c3ccc(Cl)cc3)N2C(=O)N2CCNC(=O)C2)c(OC(C)C)c1 [Nutlin-3] (first compound 0.2 µM, partner dose 0.1 µM) | 89.8% | 104% | 85.5% | 91.3% | 87% | 93.9% | 98.7% | 98.4% |
| Cc1cn(-c2cc(NC(=O)c3ccc(C)c(Nc4nccc(-c5cccnc5)n4)c3)cc(C(F)(F)F)c2)cn1 [nilotinib] + O=C(O)[C@@H]1[O][Sb](=[O])([O][Sb]2(=[O])[O][C@H]([C@H](O)CO)[C@H](O)[C@H](C(=O)O)[O]2)[O][C@H]([C@H](O)CO)[C@@H]1O [stibogluconate] (first compound 0.2 µM, partner dose 2 µM) | 90.7% | 102% | 81.6% | 91.7% | 104% | 93.5% | 93.3% | 117% |
| Cn1c(=O)n(-c2ccc(C(C)(C)C#N)cc2)c2c3cc(-c4cnc5ccccc5c4)ccc3ncc21 + C[C@@H](Oc1cc(-c2cnn(C3CCNCC3)c2)cnc1N)c1c(Cl)ccc(F)c1Cl [Crizotinib] (first compound 0.004 µM, partner dose 0.2 µM) | 106% | 81.4% | 96% | 109% | 88.5% | 89.4% | 71.5% | 110% |
| CC(C)C[C@H](NC(=O)[C@H](Cc1ccccc1)NC(=O)c1cnccn1)B(O)O [Bortezomib] + COCC[n+]1c2c(n(Cc3cnccn3)c1C)C(=O)c1ccccc1C2=O [YM155] (first compound 0.001 µM, partner dose 0.0004 µM) | 48.4% | 74.6% | 56.9% | 64.3% | 83.7% | 81.3% | 87% | 62.1% |
| Cc1cc(Nc2cc(N3CCN(C)CC3)nc(/C=C/c3ccccc3)n2)n[nH]1 + COc1ccc(Cl)c(Nc2nc3ccccc3nc2NS(=O)(=O)c2cccc(NC(=O)C(C)(C)N)c2)c1 [XL147] (first compound 0.04 µM, partner dose 0.8 µM) | 96.9% | 80.3% | 101% | 98.4% | 92.3% | 99.4% | 93.8% | 105% |
| Cc1cc(Nc2cc(N3CCN(C)CC3)nc(/C=C/c3ccccc3)n2)n[nH]1 + NC1(c2ccc(-c3nc4ccn5c(=O)[nH]nc5c4cc3-c3ccccc3)cc2)CCC1 [MK2206] (first compound 0.04 µM, partner dose 0.4 µM) | 95% | 79.3% | 86.9% | 68% | 75.7% | 73.1% | 81.1% | 83.2% |
| Cn1c(=O)n(-c2ccc(C(C)(C)C#N)cc2)c2c3cc(-c4cnc5ccccc5c4)ccc3ncc21 + Clc1ccc(Nc2nnc(Cc3ccncc3)c3ccccc23)cc1 [vatalanib] (first compound 0.004 µM, partner dose 2 µM) | 95% | 67.3% | 73.8% | 106% | 88.9% | 88.8% | 83.5% | 81.7% |
| Cc1cn(-c2cc(NC(=O)c3ccc(C)c(Nc4nccc(-c5cccnc5)n4)c3)cc(C(F)(F)F)c2)cn1 [nilotinib] + Cn1cnc2c(F)c(Nc3ccc(Br)cc3Cl)c(C(=O)NOCCO)cc21 [selumetinib] (first compound 0.2 µM, partner dose 0.015 µM) | 120% | 98.6% | 104% | 75% | 88.9% | 85.4% | 101% | 95.8% |
| CC(C)C[C@H](NC(=O)[C@H](Cc1ccccc1)NC(=O)c1cnccn1)B(O)O [Bortezomib] + CC(=O)c1c(C)c2cnc(Nc3ccc(N4CCNCC4)cn3)nc2n(C2CCCC2)c1=O [palbociclib] (first compound 0.001 µM, partner dose 0.04 µM) | 58.5% | 61% | 48.6% | 32.1% | 81.6% | 81.7% | 45% | 59.5% |
| COc1ccc(C2=N[C@@H](c3ccc(Cl)cc3)[C@@H](c3ccc(Cl)cc3)N2C(=O)N2CCNC(=O)C2)c(OC(C)C)c1 [Nutlin-3] + CC(C)C[C@H](NC(=O)[C@H](Cc1ccccc1)NC(=O)c1cnccn1)B(O)O [Bortezomib] (first compound 0.1 µM, partner dose 0.001 µM) | 107% | 96.5% | 91.2% | 80.2% | 87.5% | 106% | 115% | 92.3% |
| Cc1cc(Nc2cc(N3CCN(C)CC3)nc(/C=C/c3ccccc3)n2)n[nH]1 + CNC(=O)c1cc(Oc2ccc(NC(=O)Nc3ccc(Cl)c(C(F)(F)F)c3)cc2)ccn1 [sorafenib] (first compound 0.04 µM, partner dose 0.4 µM) | 83.1% | 86.9% | 107% | 99.3% | 101% | 103% | 117% | 96.3% |
